Laboratory results published in the supplement of paper PMC3334620.
In all, about 33,000 sequences were measured (“E-score (-0.5 to 0.5)”: median about -0.021, highest 2% from about 0.32 on). The list shows a part of the results.

Target: T1, Zap1 (UniProt P47043)
T1 sequence: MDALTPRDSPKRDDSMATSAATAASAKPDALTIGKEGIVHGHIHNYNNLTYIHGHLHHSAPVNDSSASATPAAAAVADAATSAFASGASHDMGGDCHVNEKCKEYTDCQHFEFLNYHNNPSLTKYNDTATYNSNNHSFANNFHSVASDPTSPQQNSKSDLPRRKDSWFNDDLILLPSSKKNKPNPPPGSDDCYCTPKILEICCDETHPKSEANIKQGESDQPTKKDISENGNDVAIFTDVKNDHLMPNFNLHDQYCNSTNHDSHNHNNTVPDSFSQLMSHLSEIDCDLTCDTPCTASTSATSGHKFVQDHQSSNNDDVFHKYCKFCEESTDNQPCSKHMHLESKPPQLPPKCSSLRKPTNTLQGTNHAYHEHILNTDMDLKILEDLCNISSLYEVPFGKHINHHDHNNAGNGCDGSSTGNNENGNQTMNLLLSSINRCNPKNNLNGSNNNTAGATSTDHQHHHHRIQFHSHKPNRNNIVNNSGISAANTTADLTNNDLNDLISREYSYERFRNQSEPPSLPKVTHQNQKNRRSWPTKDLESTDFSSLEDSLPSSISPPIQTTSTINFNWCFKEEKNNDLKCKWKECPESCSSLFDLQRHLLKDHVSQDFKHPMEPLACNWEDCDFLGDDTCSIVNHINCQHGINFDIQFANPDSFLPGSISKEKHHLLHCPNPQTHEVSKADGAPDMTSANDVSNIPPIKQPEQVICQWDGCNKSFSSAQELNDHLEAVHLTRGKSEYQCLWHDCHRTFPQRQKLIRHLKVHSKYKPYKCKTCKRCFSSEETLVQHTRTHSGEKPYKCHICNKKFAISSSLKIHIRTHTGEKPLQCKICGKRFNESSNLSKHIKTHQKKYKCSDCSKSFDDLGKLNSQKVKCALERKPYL
Assay: PBM E-score (8-mer binding enrichment) (E-score (-0.5 to 0.5)); higher = stronger / more preferred TF binding; most listed sequences are background and not binding sites
Details: protein concentration: 200 nM; construct: GST-full length
Summary of the method: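 The E-score, a modified Wilcoxon-Mann-Whitney statistic, was computed by the Universal PBM Analysis Suite for every ungapped eight-base word pooled with its reverse complement. Scans behind it were normalised with masliner after bound GST-tagged yeast transcription factors were detected with fluorescent anti-GST. The proteins, at about 100-200 nM, had been applied to universal all-10-mer Agilent arrays made double-stranded by primer extension.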

Row | Sequence | PBM E-score
1 | CGGGGATC | -0.225
2 | AGTACACG | -0.107
3 | AGAAACGG | 0.0285
4 | GCTGATTA | 0.114
5 | GACGCGTA | -0.0999
6 | GGTAACAA | 0.38
7 | CATACTAC | 0.187
8 | TACCTGCA | 0.192
9 | CACTCGGA | -0.0236
10 | ACCCCGCT | 0.135
11 | CCAGTTGA | -0.159
12 | GAGAAAGC | -0.0701
13 | GATAGATC | -0.126
14 | AACCACGT | 0.125
15 | ACTCCTGA | -0.0864
16 | ATGTGGTC | 0.0865
17 | TAAGTGCA | -0.0417
18 | AATCATAA | 0.136
19 | CCGCTACC | 0.252
20 | GATAGGGA | -0.0655
21 | ACCCAAAT | 0.306
22 | AGACACTA | 0.0913
23 | ATGTCCCA | -0.138
24 | GGATGCTA | -0.258
25 | ATTCCAAG | 0.0261

Row | Sequence | PBM E-score
26 | ATGCTCAC | -0.16
27 | CCTTCGCC | -0.217
28 | ATTCGCGG | 0.202
29 | ACATCTCC | -0.123
30 | AAGTCTAA | 0.0161
31 | CAATTTAG | 0.155
32 | TCTCATAA | 0.0169
33 | TAGGTAAA | 0.0149
34 | CGGGTCGC | 0.0356
35 | TGTAGAAA | -0.0482
36 | AACCACTT | 0.235
37 | AGCTTCCC | -0.365
38 | TGCTACAA | 0.155
39 | CATACAAC | 0.0436
40 | AACCTGGA | 0.135
41 | CCCCTCAG | 0.0013
42 | CTCCTACA | 0.0476
43 | CCGGATTC | -0.0168
44 | CTTAATGC | -0.103
45 | AAACAATT | -0.0127
46 | AAACGGTG | -0.0252
47 | TACGCCCA | -0.0229
48 | CATCCTTC | -0.136
49 | CGGTATAG | -0.122
50 | AACAATAT | 0.292

Row | Sequence | PBM E-score
51 | ACAAACCC | 0.0973
52 | AGGGGAGC | -0.289
53 | CACCGGAG | -0.208
54 | GGACGGCC | -0.0875
55 | CTAATTAA | -0.00111
56 | GAACTTCA | -0.0501
57 | GGTGTCAA | -0.0571
58 | AGTGCCGA | -0.124
59 | GAGATAGC | -0.102
60 | CAGAGTTC | 0.00679
61 | CCCGCTAG | 0.0546
62 | GCTAAAAC | 0.0736
63 | CGCCTCAC | 0.0194
64 | CTAGCCTA | -0.231
65 | CGCCCTTC | -0.0904
66 | CCTGACGA | 0.0606
67 | TAGCGTAA | 0.218
68 | AGGACGGG | -0.274
69 | AGTATTGC | 0.026
70 | CTCTGCGC | -0.194
71 | GGTACAAC | 0.296
72 | GAATTTCA | 0.0241
73 | CTCATTGC | 0.048
74 | CCCTCTCG | 0.0789
75 | CCAGGCAC | -0.192

Row | Sequence | PBM E-score
76 | TTCGGAAA | -0.0729
77 | CAACCAAC | 0.0043
78 | AGCCTCCA | -0.181
79 | ATTAGATA | 0.131
80 | TGAGGGCA | -0.145
81 | GGGTCAAC | 0.306
82 | GGGTTCGA | -0.0189
83 | ACATCTAC | -0.00772
84 | GCAGTTAA | 0.0321
85 | ATTCCTTG | -0.102
86 | TCCTACCA | -0.13
87 | GAAGGAAA | -0.145
88 | AATATCCC | -0.0114
89 | ATTAGGGC | -0.0585
90 | CAAATGCG | 0.187
91 | ATTGAACC | 0.15
92 | AGCCGCAC | -0.159
93 | CATCGTTC | -0.015
94 | AACGTCAG | -0.191
95 | AACGCTGT | -0.126
96 | CGTTGGGC | -0.172
97 | GAACTCTA | -0.0476
98 | GGAGCGAC | -0.122
99 | AGGCTGAT | -0.178
100 | CCAAAAAA | 0.302

Row | Sequence | PBM E-score
101 | GCTCCCCC | -0.279
102 | GTGATCTA | 0.0436
103 | CATACGTA | 0.0326
104 | ACCACATA | 0.186
105 | ACGCATCG | -0.197
106 | ATAACTCA | 0.139
107 | CTCTTTAA | 0.0384
108 | GAACGTAC | -0.0635
109 | GGGCATAA | 0.113
110 | ACTCTTGA | -0.00751
111 | TCAATTAA | 0.118
112 | AGGGTAAG | 0.373
113 | TAAACGCA | -0.0354
114 | AGATGAAT | -0.102
115 | TCCCACGA | 0.00185
116 | CCGGACTA | -0.112
117 | GCTAGGTA | -0.0853
118 | AAAAACGT | 0.0252
119 | AGGCTTAC | -0.22
120 | CGGCATAC | -0.198
121 | CACACGAC | 0.0123
122 | AAGTTGTG | 0.132
123 | AACAAATA | 0.161
124 | ATTACACG | 0.00914
125 | ATGTGCTA | 0.00879

Row | Sequence | PBM E-score
126 | AACTTGAG | -0.143
127 | GTCCCACA | 0.0224
128 | AGTAACTC | -0.0584
129 | CATCCACA | -0.0413
130 | CGACCATC | -0.0448
131 | GTAGTACA | 0.0324
132 | ATCACGAT | -0.0412
133 | GGACAGGA | -0.0689
134 | ACGCTAAG | -0.235
135 | ATCGAAGG | 0.0532
136 | GTGTGAAA | 0.135
137 | GGCAGATA | -0.108
138 | CCCACCGA | 0.0688
139 | CTATCTGA | -0.122
140 | GCCGTCGC | -0.0684
141 | TAATCTGA | 0.0172
142 | ACGCTTTA | -0.195
143 | CAGGTCAC | 0.195
144 | CGATTTCC | -0.028
145 | ACGCAGAG | -0.0426
146 | GGTTAAGA | 0.364
147 | CAGGCGAC | -0.117
148 | AGTGTGGG | -0.25
149 | AGCAAAGG | 0.193
150 | GGCGATTA | -0.156

Row | Sequence | PBM E-score
151 | AATGCTAA | 0.0411
152 | GAAACTCC | -0.206
153 | CTTTTATC | 0.0786
154 | CTTGTCCC | -0.0324
155 | ATTTCGAA | 0.2
156 | GGTGAAAC | -0.0336
157 | ACATGACC | 0.229
158 | TCAGATCA | -0.0317
159 | GTACGAGA | -0.151
160 | AGTAAGAC | -0.0197
161 | GTTGCGTA | 0.265
162 | CGAAATAC | 0.23
163 | AAGCTATA | 0.0255
164 | AGCAAATA | -0.0419
165 | GGCTCTAA | 0.0427
166 | CAAGGGTC | 0.355
167 | AGGTCAAG | 0.277
168 | GCAGCTCC | -0.208
169 | CCCGCTTA | -0.188
170 | CGTAACGC | 0.04
171 | CAGCCATG | -0.0489
172 | GGTTAGAA | 0.271
